# The campaign covered roughly 310,000 compounds. About 14,000 (4.5%) showed an effect of 50% or more. Effects have a minus sign here. This is one part of the list.
# Molecular target: human ether-à-go-go-related gene (hERG) potassium channel (human, UniProt Q12809)
# Assay: primary screen, population patch clamp on CHO cells stably expressing hERG
# 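Also: peak tail current of the secondary pulse compared with the same well before compound.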
# Chain of human ether-à-go-go-related gene (hERG) potassium channel (Q12809 whole entry, looked up): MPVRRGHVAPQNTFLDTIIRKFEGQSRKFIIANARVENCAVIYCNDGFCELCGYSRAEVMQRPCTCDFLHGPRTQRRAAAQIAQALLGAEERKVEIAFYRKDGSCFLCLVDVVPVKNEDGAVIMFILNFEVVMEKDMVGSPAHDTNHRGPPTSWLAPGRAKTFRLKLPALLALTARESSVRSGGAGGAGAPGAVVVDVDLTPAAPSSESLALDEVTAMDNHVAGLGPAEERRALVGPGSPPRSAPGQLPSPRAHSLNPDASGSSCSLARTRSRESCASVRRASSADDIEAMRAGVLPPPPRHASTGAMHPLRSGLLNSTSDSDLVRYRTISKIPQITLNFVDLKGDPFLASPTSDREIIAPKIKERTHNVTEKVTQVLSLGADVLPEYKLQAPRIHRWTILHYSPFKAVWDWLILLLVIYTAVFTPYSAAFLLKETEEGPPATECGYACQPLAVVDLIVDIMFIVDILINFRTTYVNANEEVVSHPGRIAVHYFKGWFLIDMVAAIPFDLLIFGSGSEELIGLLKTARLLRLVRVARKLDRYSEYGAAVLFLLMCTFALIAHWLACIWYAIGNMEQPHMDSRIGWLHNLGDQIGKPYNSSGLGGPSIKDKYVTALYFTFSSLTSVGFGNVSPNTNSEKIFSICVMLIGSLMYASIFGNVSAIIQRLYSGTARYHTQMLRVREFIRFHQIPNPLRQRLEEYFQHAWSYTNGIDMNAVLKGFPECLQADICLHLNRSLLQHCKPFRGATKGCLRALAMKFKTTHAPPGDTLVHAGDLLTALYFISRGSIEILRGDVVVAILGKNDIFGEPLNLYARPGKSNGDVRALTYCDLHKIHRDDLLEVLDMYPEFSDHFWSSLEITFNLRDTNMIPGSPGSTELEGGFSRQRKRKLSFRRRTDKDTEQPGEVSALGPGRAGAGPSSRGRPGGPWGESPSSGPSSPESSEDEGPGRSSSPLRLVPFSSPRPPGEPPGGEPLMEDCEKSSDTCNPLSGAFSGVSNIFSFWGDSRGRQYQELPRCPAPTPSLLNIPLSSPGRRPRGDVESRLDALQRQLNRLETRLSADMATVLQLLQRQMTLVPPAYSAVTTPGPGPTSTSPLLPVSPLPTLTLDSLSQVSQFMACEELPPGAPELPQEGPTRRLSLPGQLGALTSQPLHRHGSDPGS
row,Structure (SMILES),"hERG current change (%, negative = inhibition) at 10uM [%]"
1,CCOC(=O)c1c(C)oc2ccc(OCC(N)=O)cc12,-7.78
2,Cn1c(C=O)c(C#CC(C)(C)O)c2ccccc21,10.1
3,C=CCn1c(SCC(=O)c2ccc(NS(=O)(=O)c3ccccc3)cc2)nnc1-c1cccs1,-19.5
4,c1ccc(-c2nnc(SCc3cn4ccsc4n3)o2)cc1,-13.8
5,CCOc1ccc(S(=O)(=O)NCc2ccncc2)cc1,-17.8
6,CC(c1ccc(F)cc1)n1c(-c2cccs2)n[nH]c1=S (stereo not drawn),6.01
7,COc1cccc(C2C(C(=O)Nc3nc4ccccc4s3)=C(C)NC3=C2C(=O)CC(C)(C)C3)c1OC (stereo not drawn),15.8
8,CC1(C)CC(=O)c2c(-c3cccnc3)n[nH]c2C1,-9.55
9,CCOc1ccc(-n2c(SCc3cc(=O)oc4cc(C)ccc34)nnc2-c2cccnc2)cc1,-70.7
10,CN(C)c1ccc(/C=N\NC(=S)SCN2C(=O)C3CCC(C)(C2=O)C3(C)C)cc1 (stereo not drawn),10.7
11,CCC(=O)NC(c1cccs1)c1cc([N+](=O)[O-])c2cccnc2c1O (stereo not drawn),15
12,COc1ccc(N=C(C)C2=C(O)CSC2=O)cc1,12.6
13,COc1ccc(CCNC(=O)CSc2ccccc2)cc1OC,-0.789
14,Cc1ccc(NS(=O)(=O)c2cc(OCC(N)=O)c(C)cc2Cl)cc1C,-22.8
15,Cc1cc(Cl)ccc1NC(=S)NCCc1ccc(Cl)cc1,15.6
16,CCCc1cc(=O)oc2c(C)c(OCC(=O)NC3CC(C)(C)NC(C)(C)C3)ccc12,-18
17,CCOC(=O)CSc1nc(C(C)(C)C)cc(C(F)(F)F)c1C#N,11.7
18,COc1cc(C(=O)Nc2ccc(F)cc2Cl)ccc1OCC(=O)N1CCOCC1,4.55
19,CCNc1nc(NC(C)(C)C)nc(SCC(N)=O)n1,10.5

row,Structure (SMILES),"hERG current change (%, negative = inhibition) at 10uM [%]"
1,Cc1c(C)n(CCC#N)c2ccc(Cl)cc12,-12.4
2,COCCCNC(=O)/C(=C\c1cccn1C)NC(=O)c1cccs1,7.68
3,Cc1ccc(C)c(N(CC(=O)NN=C2CCN(C)CC2)S(=O)(=O)c2ccccc2)c1,-3.06
4,COc1ccc(Cl)cc1NC(=O)c1cccc(N2C(=O)C3CC=CCC3C2=O)c1 (stereo not drawn),-41.8
5,Cc1nnc(SCC(=O)NCc2ccco2)n1-c1ccccc1,26.1
6,COc1ccc(C(=O)N/C(=C\c2ccccc2)C(=O)NC(CCSC)C(=O)O)cc1 (stereo not drawn),8.06
7,O=C(Nc1cc(Cl)cc(Cl)c1)N1CCCC1,3.91
8,CCN(CC)S(=O)(=O)c1cccc(S(=O)(=O)N2CCCCC2)c1,-26.4
9,C=CCN([C@@H](CC(C)C)C(=O)OC)S(=O)(=O)N(CC=C)[C@@H](CC(C)C)C(=O)OC,8.18
10,O=C(O)CCCC(=O)N1N=C(c2ccco2)CC1c1ccco1 (stereo not drawn),9.6
11,CC(=O)c1cccc(NS(=O)(=O)c2ccc(N/C=C/C(=O)c3ccc(F)cc3)cc2)c1,8.3
12,N#Cc1ccc(-c2ccco2)nc1SCc1ccccc1,5.14
13,Cc1cccc(NC(=O)CSCC(=O)Nc2cccc(S(=O)(=O)N3CCCCCC3)c2)c1,-9.69
14,Cc1nc(-c2ccccc2)nc2[nH]c(C(C)C)cc(=O)c12,-7.26
15,CCCS(=O)(=O)N1CCCC(C(=O)Nc2ccc3c(c2)CCC3)C1 (stereo not drawn),5.43
16,Cc1ccc(-c2n[nH]c(=S)n2/N=C/c2c(C)[nH]n(-c3ccccc3)c2=O)cc1,31.8
17,CCCc1nc(SCC(=O)c2ccccc2)c2c(=O)n(C)c(=O)n(C)c2n1,-23.5
18,O=C1C(=O)c2ccccc2C(O)=C1c1cccc([N+](=O)[O-])c1,13.8
19,CCN(C(=O)CSc1nc2c(cnn2-c2ccccc2)c(=O)[nH]1)C1CCS(=O)(=O)C1 (stereo not drawn),-22.7

row,Structure (SMILES),"hERG current change (%, negative = inhibition) at 10uM [%]"
1,CN(C(=O)c1ccccn1)c1nnc(-c2ccccn2)s1,11.6
2,CCCCNc1c(-c2ccc(OC)c(SC3CCCCC3)c2)nc2cc(C)ccn12.O=C(O)C(F)(F)F,12.6
3,Cc1nc(N2CCNCC2)c2c3c(sc2n1)CCCC3,-2.23
4,CC1(c2nnc(-c3ccc(F)cc3)o2)CC(c2ccccc2)=NO1 (stereo not drawn),10.1
5,COc1ccc(/C=C/C(=O)O)cc1OC,12.8
6,Cl.N#Cc1ccc(C(c2nnnn2Cc2ccccc2)N2CCCC2)cc1 (stereo not drawn),-14.9
7,Cc1cc(-c2ccccc2N)n[nH]1,-2.9
8,O=C(c1ccc(Cl)cc1)N1CCN(CCOc2ccccc2)CC1,-60.1
9,O=S(=O)(NCc1ccco1)c1cnc(Cl)c(Br)c1,2.87
10,COCc1[nH][nH]c(=O)c1C=Nc1ccc(C(F)(F)F)cc1,-13.2
11,O=C(C1=C(O)C(=O)N(CCc2ccccc2)C1c1cccs1)c1ccco1 (stereo not drawn),10.2
12,CC(C)Sc1nnc(OC(=O)N(C)C)n1-c1ccccc1,-0.148
13,CCCNC(=O)/C(C#N)=C1\N=C(NC(=O)c2cccs2)c2ccccc21,4.48
14,COc1ccc(CC(=O)NCc2n[nH]c(=S)n2-c2cccc(C)c2)cc1,9.12
15,COc1ccc(CCC(=O)Nc2cc(Cl)ccc2N2CCN(C)CC2)cc1,-50.1
16,COC(=O)CSc1ncnc2c1sc1nc(N3CCOCC3)c3c(c12)CCCC3,23.4
17,Cc1csc(CN(C)C(=O)c2cn(Cc3cccc4ccccc34)nn2)n1,-8.45
18,CCn1c(SCC(=O)NCc2ccccc2)nc2c(c1=O)SC(C)C2 (stereo not drawn),-2.95
19,Cc1cc(Cl)ccc1NC(=O)CCN1C(=O)C2CCCCC2C1=O (stereo not drawn),0.13
